The full ranking holds about 110,000 compounds; the median of “z-score” is about -0.1, and the highest 2% start at about 2. The list shows a part of the results. Activity calls are given as the source filed them.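 Rule for the calls: active = z-score in the third read window above 3 or below -3; inactive = the rest.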

This assay has as its target Metabotropic glutamate receptor 8 (Rattus norvegicus) (UniProt P70579). As to the kind of experiment: mGluR8 Gi/Go-coupled signaling modulation – cell-based, rat, thallium flux, HTS, primary screen (AID 488969). As to conditions: HEK293 rat mGluR8, GIRK (G protein-gated inwardly rectifying potassium channel) thallium flux, FluoZin2; at 10 µM; stronger effect = higher value; submaximal glutamate (EC20) added with thallium.
Chain of UniProt P70579 (P70579 whole entry, looked up): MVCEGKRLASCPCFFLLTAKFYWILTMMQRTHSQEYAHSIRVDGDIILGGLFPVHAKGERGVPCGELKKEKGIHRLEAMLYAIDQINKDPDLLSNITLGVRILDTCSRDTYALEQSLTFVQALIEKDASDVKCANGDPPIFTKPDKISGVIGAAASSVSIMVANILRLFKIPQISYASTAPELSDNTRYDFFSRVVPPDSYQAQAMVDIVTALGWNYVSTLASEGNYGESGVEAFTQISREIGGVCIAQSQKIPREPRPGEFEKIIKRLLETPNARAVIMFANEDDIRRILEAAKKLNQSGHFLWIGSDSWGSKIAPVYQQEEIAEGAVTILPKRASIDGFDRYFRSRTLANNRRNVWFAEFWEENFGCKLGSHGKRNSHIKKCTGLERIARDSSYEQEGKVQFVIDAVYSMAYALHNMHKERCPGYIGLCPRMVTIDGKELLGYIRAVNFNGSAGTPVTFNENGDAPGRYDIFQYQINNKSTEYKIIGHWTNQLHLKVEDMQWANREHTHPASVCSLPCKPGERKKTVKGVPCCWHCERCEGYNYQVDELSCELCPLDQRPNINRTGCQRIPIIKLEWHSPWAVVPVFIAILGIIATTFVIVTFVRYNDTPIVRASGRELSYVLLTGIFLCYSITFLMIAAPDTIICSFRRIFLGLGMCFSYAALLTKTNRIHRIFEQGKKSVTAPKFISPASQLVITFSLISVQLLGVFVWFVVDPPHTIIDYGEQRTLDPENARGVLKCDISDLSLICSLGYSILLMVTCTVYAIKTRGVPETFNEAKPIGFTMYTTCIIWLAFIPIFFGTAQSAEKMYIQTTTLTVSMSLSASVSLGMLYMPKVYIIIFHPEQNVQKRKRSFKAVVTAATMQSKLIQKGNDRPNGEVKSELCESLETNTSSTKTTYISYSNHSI
`Cc1cc(C)n(-c2cc(N3CCN(C(=O)c4cccc(Br)c4)CC3)ccc2[N+](=O)[O-])n1` yielded a z-score of -0.73.

The compound `CC(=O)NC(=S)Nc1sc2c(c1C#N)CCCCC2` came in with a z-score of -0.116.

As to `COc1ccc2c(c1)c(=O)cc(-c1ccccc1)n2C`, the z-score was -0.0758.

With `Cc1ccc(C2NC(=O)NC(O)(C(F)(F)F)C2C(=O)c2ccccc2)o1` (stereo not given), the z-score is -0.198.

Take `CCn1c(SCC(=O)c2ccc(Cl)s2)nnc1-c1cccs1`: the z-score is -0.755.

In turn, `CC(c1ccccc1)n1cc(C(=O)NCc2cccnc2)nn1` (stereo not given) came in with a z-score of -0.351.

`Clc1ccccc1-c1nc2nc3ccccc3nc2n1-c1ccc2c(c1)OCO2` had a z-score of -0.429.

Compound `CCOc1cc(C(=O)NCC(C)CN(C)C)cc(OCC)c1OCC` (stereo not given) yielded a z-score of 0.122.

`Cc1ccc2nc(C)c(C(=O)N/N=C/c3ccccc3[N+](=O)[O-])cc2c1`: the z-score is -0.334.

In turn, `CCCNC(=O)/C=C/c1ccc(C(C)C)cc1` returned a z-score of -0.258.

`Cc1ccc(Cc2cnc(NC(=O)c3ccco3)s2)cc1`: the z-score is -0.555.

`Cc1ccc(C2(C)NC(=O)N(CC(=O)NC(=O)NC3CCCC3)C2=O)cc1` (stereo not given) came in with a z-score of -0.423.

Take `FC(F)(F)COc1nc(OCC(F)(F)F)nc(N2CCN(c3ccccc3)CC2)n1`: the z-score was -0.193.

In turn, `O=C(Nc1nnc(-c2ccccc2Cl)s1)C1CCN(S(=O)(=O)c2ccc(Cl)cc2)CC1` showed a z-score of -0.105.

Regarding `CC(C)CC(C(=O)Nn1cnnc1)N1C(=O)c2ccccc2C1=O` (stereo not given), the z-score is -0.247.

`COc1ccc(OC)c(NC(=O)c2[nH]c(C)c(C(C)=O)c2C)c1`: the z-score was determined as 0.219.

On to `COc1cccc(C(C#N)N2CCCCC2)c1O` (stereo not given), for which the z-score is -0.0959.

`Cc1ccc(N2CN(Cc3ccco3)CNC2=S)c(C)c1` gave a z-score of -0.116.

`O=C(C1CCCO1)N1CCN(c2ncccn2)CC1` (stereo not given) showed a z-score of 0.975.

As to `CCN(C(=O)CSc1nnc2c3ccccc3n(CC)c2n1)C1CCS(=O)(=O)C1` (stereo not given), the z-score is -0.214.

As to `CCOc1ccc(-n2c(C)nc3cc(C(=O)NCc4ccco4)ccc32)cc1`, the z-score was determined as 0.364.

Take `Cc1cc(C(=O)N2CCN(c3ncccn3)CC2)sc1-c1ccccc1`: the z-score is -0.488.

`COCCCNCCCCOc1ccccc1-c1ccccc1` yielded a z-score of 0.319.

Compound `CCOC(=O)C(O)(CCC(O)(C(=O)OCC)C(=O)OCC)C(=O)OCC` registered a z-score of 0.0508.

Regarding `NC(=O)c1c(C(F)(F)F)cc(-c2ccccc2)nc1NCCO`, the z-score was -0.157.

In the case of `CC(C)(C)NC(=O)C(c1ccsc1)N(CCc1ccccc1)C(=O)Cn1nnc2ccccc21` (stereo not given), the z-score is -0.173.

Turning to `CCOC(=O)c1ccc2c(c1)nc(SCC(=O)c1ccco1)n2CC`, the z-score was -0.142.

Turning to `CC(=O)Nc1cc(C(=O)OCC(=O)c2ccc(Cl)cc2Cl)ccc1C`, the z-score was found to be 0.0985.

`Cc1ccc(C)c(OCC(=O)Nc2ccc(S(=O)(=O)Nc3ccccn3)cc2)c1` showed a z-score of -0.116.

Compound `CC(C)NC(=O)COC(=O)CNC(=O)c1cc(Cl)cc([N+](=O)[O-])c1` yielded a z-score of -0.346.

For the compound `CCC(C)(C)n1nnnc1C(c1ccc(C)cc1)N1CCN(Cc2ccc3c(c2)OCO3)CC1` (stereo not given), the z-score came out at 0.434.

On to `CC1CN(C(=O)c2cnn3c(C(F)F)cc(-c4ccccc4)nc23)CC(C)O1` (stereo not given), for which the z-score was -0.152.

With `O=C1CN(C(=O)CSc2nc3ccccc3c(=O)n2Cc2ccc(F)cc2)c2ccccc2N1`, the z-score is active: 3.79.

For `COc1cccc(N2C(N)=NC(N)=NC2(C)C)c1`, the z-score was -0.232.

With `COc1ccc(NC(=O)C(NC(C)=O)C(=O)NCc2ccccc2OC)cc1` (stereo not given), the z-score was -0.0786.

Turning to `O=C(NCCCCCCCCCNC(=O)C(F)(F)F)C(F)(F)F`, the z-score came to 0.183.

With `CCCCCNc1nc2ccccc2nc1NS(=O)(=O)c1cccs1`, the z-score is -0.306.

Consider `C/C(=N/NC(=O)c1cc(C(C)C)[nH]n1)c1cccs1`, for which the z-score was -0.349.

Take `COCCNS(=O)(=O)c1cccn1-c1ncc(C(F)(F)F)cc1Cl`: the z-score was -0.124.

`COC(=O)c1cccc(NC(=O)Nc2ccc(Cl)c(Cl)c2)c1` displayed a z-score of -0.235.

For the compound `CCC1(CC)N([O-])C(C)=C(c2ccccc2)[N+]1=O`, the z-score was -0.141.

`CN(CC(=O)Nc1nc2ccccc2s1)S(=O)(=O)c1ccc(Cl)cc1` displayed a z-score of 1.52.

In turn, `O=C(Cc1ccc(F)cc1)Nc1cccc2cccnc12` came in with a z-score of -0.309.

Turning to `CN(CC(=O)Nc1cccnc1)S(=O)(=O)c1ccccc1`, the z-score is -0.0827.

Take `CCC(C)(C)C1CCC(=NNS(=O)(=O)c2ccc(C)c([N+](=O)[O-])c2)CC1` (stereo not given): the z-score was -0.725.

`CC(C)(C)C(=O)N1CCC(O)(CS(=O)(=O)Cc2ccccc2Cl)CC1`: the z-score was 0.0412.

In turn, `Cc1ccc(NC(=S)NC(=O)c2ccc(-c3ccccc3)cc2)c(C)c1` had a z-score of 0.373.

The compound `CCCC(=O)Nn1cnc2c(c1=O)C1(CCCCC1)Cc1ccccc1-2` gave a z-score of -1.17.

`C=CCOc1ccc(Oc2cc(C)nc(SC)n2)nn1` came in with a z-score of -0.1.

With `O=C(CN1CCN(Cc2ccccc2F)C1=O)NCc1ccco1`, the z-score was -0.159.

As for `O=S(=O)(c1ccc(Sc2nnc3ccccn23)nc1)N1CCOCC1`, the z-score is -0.242.

On to `CS(=O)(=O)N1CCN(c2ccccc2NC(=O)Cc2ccccc2)CC1`, for which the z-score came to 0.395.

Turning to `Clc1ccc(-n2ncc3c(NCCCn4ccnc4)ncnc32)cc1`, the z-score stood at 0.106.

Take `CN(C1CCS(=O)(=O)C1)S(=O)(=O)c1ccc(C2CCCCC2)cc1` (stereo not given): the z-score came out at 0.314.

Compound `COC(=O)c1cc(C(=O)OC)n(Cc2ccc(Br)cc2)n1` registered a z-score of -0.538.

Take `CC(OC(=O)CCN1C(=O)c2cccc([N+](=O)[O-])c2C1=O)C(=O)Nc1cc(Cl)cc(Cl)c1` (stereo not given): the z-score was -0.338.

Regarding `CC1(C)Cc2c(C#N)c(N3CCN(C(=O)c4ccccc4)CC3)nc(-c3ccco3)c2CS1`, the z-score is -0.316.

With `O=C(CCc1ccccc1)Nc1cc(C(F)(F)F)ccc1Cl`, the z-score is -0.45.

`CCCS(=O)(=O)N1CCC(C(=O)NCCCOC)CC1` showed a z-score of -0.0448.

In turn, `Nc1ccc(C(=O)Nc2ccc(OC(F)(F)C(F)F)c(NC(=O)c3ccc(N)cc3)c2)cc1` gave a z-score of -0.219.

In turn, `CCOC(=O)C1=C(C)NC(=S)NC1c1ccc(-c2cccc(Cl)c2C)o1` (stereo not given) gave a z-score of -0.0797.

Regarding `C/C(=N\NS(=O)(=O)c1ccccc1)c1cccc(NC(=O)c2cccc(Cl)c2)c1`, the z-score was -0.0447.

For the compound `COc1ccc(S(=O)(=O)Nc2cc(C)ccn2)cc1OC`, the z-score is 0.0856.

On to `C=CCOc1ccc(C(=O)NC2CCCCC2)cc1`, for which the z-score was -0.0969.

`CC(NC(=O)Nc1nnc(C(F)(F)F)s1)N1C(=O)C2C3C=CC(C3)C2C1=O` (stereo not given) gave a z-score of 0.0447.

On to `Cc1ccc(NS(=O)(=O)c2ccc(Cl)c(NC(=S)NC(=O)C3CCCCC3)c2)cc1Cl`, for which the z-score amounted to 0.508.

With `Cc1ccc(CNC(=O)C2CCN(S(=O)(=O)c3cccs3)CC2)o1`, the z-score was 0.486.

`CCc1ccccc1NC(=O)CSc1nnc(-c2ccco2)n1N`: the z-score was -0.154.

For the compound `COc1cccc(OC)c1C(=O)N1CCN(Cc2ccc3c(c2)OCO3)CC1`, the z-score stood at 0.242.

Turning to `Cc1ccc2nc(-c3cccc(N)c3)[nH]c2c1`, the z-score was -0.0989.

On to `O=S(=O)(NCc1cccnc1)c1cccc2cccnc12`, for which the z-score is -0.0796.

Compound `Cc1ccc(S(=O)(=O)NC2=NCN(CCOC(=O)c3ccc([N+](=O)[O-])cc3)CN2)cc1` yielded a z-score of -0.21.

As to `COc1ccc(/C=C/C(=O)c2ccc3c4c(cccc24)CC3)cc1OC`, the z-score is -0.107.

Compound `O=C(CSc1nnnn1-c1ccccc1F)Nc1nc2ccccc2s1` came in with a z-score of -0.104.

Turning to `COc1cccc(-c2ccc(C#N)c(SCC(=O)NCCc3ccccc3)n2)c1`, the z-score is -0.178.

The compound `COc1ccc2c(c1)CCc1c(C(=O)NCc3ccc(Cl)cc3)noc1-2` displayed a z-score of -0.0809.

`CC1(C)Cc2nc3oc4c(=O)n(CC(=O)Nc5ccccc5)cnc4c3cc2CO1` registered a z-score of 0.0779.

Take `C=CCNc1nc(Cl)ncc1F`: the z-score is -0.289.

For `Cc1ccc(C(=O)NCc2ccco2)cc1S(=O)(=O)N1CCCCC1`, the z-score came to 0.0491.

Compound `Cc1ccc(C(C(=O)NC2CCCC2)N(C(=O)CNC(=O)c2cccs2)c2cccnc2)o1` (stereo not given) gave a z-score of -0.492.

In the case of `CCOC(=O)c1sc(NC(=O)c2ccc(S(=O)(=O)N(CC)CC)cc2)nc1C`, the z-score is 0.157.

`O=C(Cc1cn(Cc2cccc(Cl)c2)c2ccccc12)N1CCCCCC1` came in with a z-score of -0.135.

For the compound `O=C(O)C1CCCN1S(=O)(=O)c1cccs1` (stereo not given), the z-score was -0.248.

`COc1ccc(NC(=O)c2sc(N3CCOCC3)nc2-c2ccccc2)c(OC)c1` showed a z-score of -0.171.

In turn, `CCCCCCC1CCC(C(=O)Nn2c(C)nc3ccccc3c2=O)CC1` (stereo not given) had a z-score of -0.122.

Compound `Cc1ccccc1N1C(=O)C2ON(c3ccccc3)C(c3ccncc3)C2C1=O` (stereo not given) displayed a z-score of 0.333.

`c1ccc(-c2ccccc2OCCn2cncn2)cc1` came in with a z-score of -0.2.

The compound `O=C(CNCC1CCCCC1)Nc1ccccc1N1CCCCC1` showed a z-score of 0.155.

Compound `COc1cc(CC(=O)Nc2ncc(C)s2)cc(OC)c1OC` displayed a z-score of 0.453.

In turn, `O=C(Nc1ccc2c(c1)OCO2)c1ccc(S(=O)(=O)NCC2CCCO2)cc1` (stereo not given) yielded a z-score of -0.247.

For `CCOc1cc(/C=N\O)cc(Cl)c1OCC`, the z-score is -0.425.

In turn, `O=C(Cc1ccccc1)NCC(=O)OCC(=O)c1ccc(Cl)c([N+](=O)[O-])c1` came in with a z-score of -0.0417.

`Cc1ccc(S(=O)(=O)N2CCCC2C(=O)OCc2ccco2)cc1` (stereo not given): the z-score turned out to be 0.122.

As for `O=S(=O)(Cc1ccccc1)N1CCCCC1`, the z-score was -0.342.

In turn, `COc1cc(O)c(CCC(=O)c2cc(OC)c(OC)c(OC)c2)c(OC)c1` gave a z-score of -0.0311.

Take `CCC(=O)Nc1c(C)c(CC)nc2ccccc12`: the z-score is -0.158.

`Nc1nc(CSc2ncn(-c3ccccc3)n2)cs1` had a z-score of -0.194.

Take `Nc1ccccc1OCP(=O)(c1ccccc1)c1ccccc1`: the z-score is -0.151.

In the case of `COc1ncnc2c1sc1nc(-c3ccccc3)c3c(c12)CCCC3`, the z-score was -0.0945.

In the case of `CC(C)CCNc1nnnc2c1sc1nc(N3CCOCC3)c3c(c12)CC(C)(C)SC3`, the z-score is -0.222.

In the case of `Cc1nn(Cc2ccccc2)c(=O)n1N(C)c1ncc(C(F)(F)F)cc1Cl`, the z-score is -0.209.

In the case of `COc1ccc(/C=N/n2c(C)nnc2C)c(OC)c1`, the z-score is -0.105.

With `CN(CCOc1ccccc1)c1ccc(S(=O)(=O)N2CCCCC2)cn1`, the z-score is -0.471.

In the case of `CCOC(=O)C(C)(C)Sc1nc2c(cnn2-c2ccc(Cl)cc2)c(=O)[nH]1`, the z-score was -0.781.

The compound `O=C(COC(=O)c1ccccc1-c1nc2ccccc2s1)NC1CCS(=O)(=O)C1` (stereo not given) registered a z-score of 0.11.

Regarding `COc1ccc(C(=O)Nc2ccc(F)cc2F)cc1`, the z-score is -0.284.

The compound `O=c1oc(-c2ccccc2[N+](=O)[O-])nc2ccccc12` registered a z-score of -1.17.

`CCN(CC)S(=O)(=O)c1ccc2nc(SC)sc2c1` yielded a z-score of -0.259.

With `Cc1nc(SCC(=O)NCCc2ccc(Cl)cc2)nc(C)c1C`, the z-score was 0.124.

Regarding `CCOC(=O)N1CCC(NC(=O)C2CCC(Cn3c(=O)[nH]c4ccccc4c3=O)CC2)CC1` (stereo not given), the z-score is -1.

The values above are taken from PubChem BioAssay AID488969 (Vanderbilt High Throughput Screening Facility, 2010).
